In article PMC7819943, “Rice protein-binding microarrays: a tool to detect cis-acting elements near promoter regions in rice” one finds binding signal data, which are given here for 42 sequences.

This is one part of the list.

The assay addresses T1, OsWOX13 (Oryza sativa, UniProt Q5QMM3 1-267).
T1 sequence: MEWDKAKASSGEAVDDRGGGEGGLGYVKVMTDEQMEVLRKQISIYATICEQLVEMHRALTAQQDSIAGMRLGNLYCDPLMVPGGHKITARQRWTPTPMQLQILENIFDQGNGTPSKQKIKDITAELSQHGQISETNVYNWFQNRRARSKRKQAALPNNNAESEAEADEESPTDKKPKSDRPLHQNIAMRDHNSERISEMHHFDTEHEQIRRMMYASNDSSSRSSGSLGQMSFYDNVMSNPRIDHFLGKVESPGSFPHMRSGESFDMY
Kind of assay: protein-binding microarray (RPBM); PBS, 2% BSA, 51.3 ng/ul salmon testes DNA, 50 uM zinc acetate, 200 nM TF, 25 C, 1 h; high values mean tight binding. To be noted: protein: recombinant; tags: N-terminal polyhistidine and DsRed monomer fusion (pET32a); label: CyDye5-dUTP incorporated in the synthesized complementary strand; 3' TTTTT single-stranded linker to array surface; dsDNA, one strand shown. An outline of the steps: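 The binding signal is fluorescence intensity per feature, in arbitrary units, read on an Axon 4000B scanner. Polyhistidine- and DsRed-tagged transcription factors (N-terminal fusions) from E. coli BL21-CodonPlus were purified on Ni–NTA and applied at 200 nM for 1 h at 25 °C to a double-stranded, BSA-blocked custom Agilent array in buffer with 50 µM zinc acetate.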
Consider “AATTAAAATTGATGATGTTTGTTAGTTTTATTAGCACTATCGGAGTCACCTAGTGCAG”, for which the binding signal is 17700 fluorescence intensity (a.u.).

With “CCGATGTAAATTTACCAAATTTGGTTGTTAACAAGTGGATCGGAGTCACCTAGTGCAG”, the binding signal is 27800 fluorescence intensity (a.u.).

In the case of “ATTTAAATCAATGTTGATGATGTAGCACTTTTGAATTCATCGGAGTCACCTAGTGCAG”, the binding signal was 16900 fluorescence intensity (a.u.).

As to “ATTAGTTACAGCTAATCACTACTCCGGTCGAAAGAATATCCGGAGTCACCTAGTGCAG”, the binding signal was 3500 fluorescence intensity (a.u.).

Turning to “ATGTTCTTTCTTGATTAGACCATCTGATGCTTTGCGCAGTCGGAGTCACCTAGTGCAG”, the binding signal is 4480 fluorescence intensity (a.u.).

On to “CTAAATCGATGATTAACGAGTCAGTGTTACTACTACTTTCCGGAGTCACCTAGTGCAG”, for which the binding signal is 20100 fluorescence intensity (a.u.).

“TTAGATAAAATTAATTTGTCTTGCTTTTGTAGGCTGCAGACGGAGTCACCTAGTGCAG”: the binding signal is 27700 fluorescence intensity (a.u.).

As to “TAAAGTTAATTTATTTTGGGACAGTTTGAGTAATTGGTAACGGAGTCACCTAGTGCAG”, the binding signal is 20900 fluorescence intensity (a.u.).

As to “CTGGACTGACAGTGTGACACGCGCTCCTAGTTGACATCAACGGAGTCACCTAGTGCAG”, the binding signal is 5250 fluorescence intensity (a.u.).

With “TCTCAATTTAAAATGATTACTTATATCCCGGTTAAGTTTACGGAGTCACCTAGTGCAG”, the binding signal is 26200 fluorescence intensity (a.u.).

Turning to “GAGAGATGAGATCAATCAGGAGCAGGAGCCAGGAGGAAAGCGGAGTCACCTAGTGCAG”, the binding signal was 5780 fluorescence intensity (a.u.).

On to “AATGATTAATTCTTGGAAGATCCATTGGGCATCCATAGTCCGGAGTCACCTAGTGCAG”, for which the binding signal was 38500 fluorescence intensity (a.u.).

“CAACAATCATCAACTACTTGTTAAATCTTATCCACTGGAACGGAGTCACCTAGTGCAG”: the binding signal is 4500 fluorescence intensity (a.u.).

With “AGCTAATTAAAGGGAGCAAATGTGATGAACATACCGATCCCGGAGTCACCTAGTGCAG”, the binding signal was 22600 fluorescence intensity (a.u.).

In the case of “ACTTAATTAATCATGTGCTAATATATCGCTCCGCTGTGGCCGGAGTCACCTAGTGCAG”, the binding signal is 42300 fluorescence intensity (a.u.).

In the case of “GTTTGTGATAATTATTGAGATGTACAAACGAACAAATTAACGGAGTCACCTAGTGCAG”, the binding signal is 4480 fluorescence intensity (a.u.).

Consider “TCATAATTTCTACCGCTGATGTAGCATAGCCCGAATGTCCCGGAGTCACCTAGTGCAG”, for which the binding signal was 11100 fluorescence intensity (a.u.).

For the sequence “ATAGATTGCCCACATAGTCTGGGAGGTTTCCGGTGAAATACGGAGTCACCTAGTGCAG”, the binding signal is 6010 fluorescence intensity (a.u.).

As to “TTACTTAACTGTTTAAAGGCCTAATTATTCCTAAAATAGTCGGAGTCACCTAGTGCAG”, the binding signal is 5380 fluorescence intensity (a.u.).

With “CAAATTATCATAGAACTATAGATTTAACTCGATGTATCACCGGAGTCACCTAGTGCAG”, the binding signal was 3220 fluorescence intensity (a.u.).

Take “AACCAATCACACCCTATATCTTCACCTTTCTTTCGTTCGGCGGAGTCACCTAGTGCAG”: the binding signal was 24000 fluorescence intensity (a.u.).

For the sequence “CCACATTAATGACACAATTAACACCCTCACATGTCCGTGCCGGAGTCACCTAGTGCAG”, the binding signal is 21900 fluorescence intensity (a.u.).

Turning to “GTTTACAATCACTATCAGGAAATATAGACATGAATATGATCGGAGTCACCTAGTGCAG”, the binding signal was 3480 fluorescence intensity (a.u.).

For the sequence “GGTGACAGCTTATTTAATACTATGGACATCATCCTAGTCACGGAGTCACCTAGTGCAG”, the binding signal is 8780 fluorescence intensity (a.u.).

Take “TAACCAATTTTGACTAATTCCAAGTCAATCGATTTGACTACGGAGTCACCTAGTGCAG”: the binding signal is 11000 fluorescence intensity (a.u.).

Take “TGCGATTGATATGAAGAGAGAGCATATGTTGTCATTTGTTCGGAGTCACCTAGTGCAG”: the binding signal was 19900 fluorescence intensity (a.u.).

In the case of “CTCTTAATTTTAGGAGGTGGCCGTATACACACCCTTGTTGCGGAGTCACCTAGTGCAG”, the binding signal was 11300 fluorescence intensity (a.u.).

For “TGATTAAATATAACTAAACTGTCAACGACATAATGCATTACGGAGTCACCTAGTGCAG”, the binding signal is 3470 fluorescence intensity (a.u.).

Take “TTATATGATTATCCCACACTAATATGATGTATCTCTTAGTCGGAGTCACCTAGTGCAG”: the binding signal is 14900 fluorescence intensity (a.u.).

Turning to “ATTTAAATTGAAAATTTAGCCCCGCAAACGACTCAATCTGCGGAGTCACCTAGTGCAG”, the binding signal was 36900 fluorescence intensity (a.u.).

“TGATTTAATTAATTAATTAATGGCCTTGTTATTGGATGCTCGGAGTCACCTAGTGCAG”: the binding signal was 47100 fluorescence intensity (a.u.).

Consider “AATTAATTGTGTATTATAAGGTTTGGTCCCATTTTCTTTTCGGAGTCACCTAGTGCAG”, for which the binding signal was 26800 fluorescence intensity (a.u.).

Turning to “GTGAAGACAGAAATGACAGCTAACTAGCCACGGCCAAGGCCGGAGTCACCTAGTGCAG”, the binding signal was 3460 fluorescence intensity (a.u.).

With “AATTAGATGATCATAATGGTTAGGCTTGCATCAGTGTGCTCGGAGTCACCTAGTGCAG”, the binding signal was 4260 fluorescence intensity (a.u.).

With “TACTTAATCATTACACGCTAATGGACCACTCTGTTATGTGCGGAGTCACCTAGTGCAG”, the binding signal was 16700 fluorescence intensity (a.u.).

Turning to “ACTAATTTAGTCATAATTTTCTCACATCAGAGTATTGGACCGGAGTCACCTAGTGCAG”, the binding signal was 37500 fluorescence intensity (a.u.).

Take “TAAATCAATCTAAAATTAGACGGGATGTTACCTCATACAACGGAGTCACCTAGTGCAG”: the binding signal was 25900 fluorescence intensity (a.u.).

Regarding “ATACATAATTAGCGTGCGAATCTGAAAATATTCGCTCTAACGGAGTCACCTAGTGCAG”, the binding signal was 14800 fluorescence intensity (a.u.).

As to “CCAAAATTTGCATAGACAGTCCTTCAATTCAGTGGAAAATCGGAGTCACCTAGTGCAG”, the binding signal was 10600 fluorescence intensity (a.u.).

As for “ATTAATTTTGACGCTTCATCCCCTCTGTCCCCAGCACCAGCGGAGTCACCTAGTGCAG”, the binding signal was 16200 fluorescence intensity (a.u.).

Take “AACTTTTGGATACATGATTGATAATTTCTTTTATAATTTACGGAGTCACCTAGTGCAG”: the binding signal was 9560 fluorescence intensity (a.u.).

Turning to “AGCACATAATTGATATTCCAAGGGACAGTGGTCCATCTACCGGAGTCACCTAGTGCAG”, the binding signal is 30900 fluorescence intensity (a.u.).
